Measurements taken from patent US9821054B2 (priority 2011, dated 2017).

Test system: CD4+Foxp3+ Tregs
Assay: CD4+Foxp3+ Treg quantification during booster immunization
Settings: MS-275 during booster immunization

Nc1ccccc1NC(=O)c1ccc(CNC(=O)OCc2cccnc2)cc1 [MS-275, entinostat]
increase in the DCT-specific CD8+ to Treg cell ratio: > 3 fold
